This is an account of results in the supplement of paper PMC11055344.

One may read the MIC as the lowest concentration found to suppress growth.

MIC of nasopharyngeal S. pneumoniae isolates by broth microdilution (range and time not stated); higher = less susceptible. No active / inactive call per row; the paper counts penicillin above 0.06 and amoxicillin above 0.5 mg/L as non-susceptible (EUCAST). The lowest value, 0.01, is taken as the floor ('<='); the source prints it plain. Penicillin G is assumed for 'penicillin'. Isolates are numbered anew. PBP alleles are the type numbers of penicillin-binding proteins 1a, 2b and 2x; equal numbers mean equal sequences. A value given as a limit tells only on which side of the number the result lay.

Compound in one experiment: CC1(C)S[C@@H]2[C@H](NC(=O)Cc3ccccc3)C(=O)N2[C@H]1C(=O)O [penicillin G]
As to the kind of experiment: Broth microdilution. (In general: Broth dilution looks for growth in wells or tubes with falling amounts of substance.)

Compound in a further experiment: CC1(C)S[C@@H]2[C@H](NC(=O)[C@H](N)c3ccc(O)cc3)C(=O)N2[C@H]1C(=O)O [amoxicillin]
Put plainly: Broth microdilution.

“Streptococcus pneumoniae isolate 383 (PBP alleles 1a 2b 2x: 0_0_3, serotype: 35F)”: the MIC is 0.03 µg/mL with penicillin G and at most 0.01 µg/mL with amoxicillin.
Consider “Streptococcus pneumoniae isolate 384 (PBP alleles 1a 2b 2x: 0_0_53, serotype: 10A)”, for which the MIC with penicillin G and with amoxicillin was at most 0.01 µg/mL throughout.
As to “Streptococcus pneumoniae isolate 385 (PBP alleles 1a 2b 2x: 0_0_53, serotype: 10A)”, the MIC is 0.03 µg/mL in the experiment with penicillin G and at most 0.01 µg/mL with amoxicillin.
For “Streptococcus pneumoniae isolate 386 (PBP alleles 1a 2b 2x: 2_0_2, serotype: 21)” the same measures were at most 0.01 µg/mL and at most 0.01 µg/mL.
The like results for “Streptococcus pneumoniae isolate 387 (PBP alleles 1a 2b 2x: 2_6_0, serotype: 11A)” were, in that order, at most 0.01 µg/mL and at most 0.01 µg/mL.
The like results for “Streptococcus pneumoniae isolate 388 (PBP alleles 1a 2b 2x: 7_67_1, serotype: 23B1)” were, in that order, 0.125 µg/mL and 0.06 µg/mL.
“Streptococcus pneumoniae isolate 389 (PBP alleles 1a 2b 2x: 15_76_New, serotype: 11A)”: the MIC amounted to 2 µg/mL with penicillin G and 4 µg/mL with amoxicillin.
The like results for “Streptococcus pneumoniae isolate 390 (PBP alleles 1a 2b 2x: 0_0_3, serotype: 35F)” were, in that order, 0.03 µg/mL and 0.03 µg/mL.
